The results in this text go back to ChEMBL document CHEMBL4888484, “Replenishing the malaria drug discovery pipeline: Screening and hit evaluation of the MMV Hit Generation Library 1 (HGL1) against asexual blood stage Plasmodium falciparum ,using a nano luciferase reporter read-out” (2022).

For orientation: % Inhibition means the change of the read-out against control, counted positive when it falls.

Screen size: about 150,000 compounds; about 540 (0.36%) showed an effect of 50% or more. The list shows a part of the results.

The experiment concerns Plasmodium falciparum. Put plainly: Primary screen in NF54 nanoGlo assay, in single point, at 2uM, 72h; a lower Z score goes with more inhibition. The experiment is classed as functional, Erythrocyte. The note with it: timepoint 72 hour.
As for `CCCN(CCC)C(=O)c1cc(-c2cccc(F)c2)n2nc(C(C)(C)C)cc2n1`, the “% Inhibition” value is on record as -10% and the Z score was 1.11.
Regarding `O=C(c1ccc(Cl)cc1Br)N1CC[S+]([O-])CC1`, the “% Inhibition” value was -1% and the Z score came to 0.15.
In the case of `CCCc1nnc(NC(=O)CN2CC(O)C2)s1`, the “% Inhibition” value is given as -8% and the Z score amounted to 1.03.
Regarding `CCC(=O)N(CCOC)Cc1c(-c2cccc(C)c2)noc1N1CCOCC1`, the “% Inhibition” value is -17% and the Z score was 1.67.
The like results for `C[C@@H](CN(C)CC1(CO)CCC1)c1ccccc1` were, in that order, -2% and 0.42.
`O=C(Cn1cnc2c(-c3ccccc3)nsc2c1=O)NCCc1ccc(Cl)cc1`: the “% Inhibition” value was -3% and the Z score was 0.52.
`CNC(=O)CN1CC=C(C(F)(F)F)CC1`: the “% Inhibition” value is recorded as -8% and the Z score is listed as 1.56.
`Cc1ccc(C(=O)N2CCC(n3cnnc3-c3ccccc3)CC2)cc1`: the “% Inhibition” value is listed as 0% and the Z score was -0.05.
As to `CCc1ncc(C(=O)Nc2nc3ccc(Br)cc3n2CC)s1`, the “% Inhibition” value was 21% and the Z score was -2.36.
As to `Cc1cnc(C(=O)N(CCC(C)C)C2CC2)cn1`, the “% Inhibition” value is 0% and the Z score is recorded as -0.01.
On to `FC(F)(F)Cn1ccnc1-c1ccccn1`, for which the “% Inhibition” value is given as -5% and the Z score is reported as 0.83.
Take `CCO[C@H]1CN(C(=O)CCS(=O)(=O)c2ccccc2)C[C@@H]1O`: the “% Inhibition” value is reported as -5% and the Z score amounted to 0.86.
As to `NC(=O)CC[C@@H]1N[C@]2(C(=O)Nc3ccccc32)[C@@H]2C(=O)N(c3ccc(Cl)cc3)C(=O)[C@H]12`, the “% Inhibition” value is 2% and the Z score was -0.47.
In the case of `Cc1ccccc1CC(=O)N[C@H]1CC(=O)N(CCCc2ccccc2)C1`, the “% Inhibition” value was -8% and the Z score was 1.45.
As for `CN(C)c1ccc(-c2nnc(-c3ccc(Cl)cc3)o2)cc1`, the “% Inhibition” value was -51% and the Z score was found to be 5.95.
`O=C1Nc2ccc(C3CCCC3)cc2C1=O`: the “% Inhibition” value is -1% and the Z score was found to be 0.09.
The like results for `Cc1ccccc1[C@H]1C[C@@H](O)[C@@H](O)[C@@H]1NC(=O)c1ccccn1` were, in that order, 35% and -3.91.
As for `COc1cc(-c2n[nH]c(C)c2NC(=O)Nc2cccc(Cl)c2)cc(OC)c1OC`, the “% Inhibition” value is 0% and the Z score worked out at 0.03.
In the case of `COc1ccc(-n2cnnc2-c2[nH]cnc2C)cc1`, the “% Inhibition” value is recorded as -3% and the Z score was 0.61.
On to `O=C(NCc1cccc(F)c1F)N1CCCCCCC1`, for which the “% Inhibition” value came out at 10% and the Z score is -1.23.
On to `CC(CC(=O)N1CCCC(S(C)(=O)=O)C1)c1ccc(F)cc1` (stereo unspecified), for which the “% Inhibition” value was -13% and the Z score was 1.79.
Consider `Cc1c([C@H](C)NC(=O)N(CC2CCC2)C(C)C)cnn1C`, for which the “% Inhibition” value was -11% and the Z score is 1.43.
For the molecule `COCc1cccc(C(=O)NCc2csc3c2CCCC3)n1`, the “% Inhibition” value is on record as -14% and the Z score is given as 2.96.
Turning to `COc1ccc(CNC(=O)CN2C(=O)C(C)(C)c3cc(Cl)ccc32)cc1`, the “% Inhibition” value is reported as -9% and the Z score turned out to be 1.51.
For `CN(CCN(C)C1CCCCC1)C(=O)c1cnn2cccnc12`, the “% Inhibition” value is reported as 14% and the Z score is on record as -1.86.
Take `Nc1nc2c(s1)C[C@@H](NC(=O)C(O)CCc1ccccc1)CC2` (stereo partly specified): the “% Inhibition” value is recorded as -9% and the Z score was determined as 1.6.
Turning to `CN(C(=O)Cc1ccnc(O)c1Br)c1ccccc1F`, the “% Inhibition” value was 2% and the Z score is on record as -0.34.
The like results for `C[C@@H](CC(=O)N1CCC(NC(=O)c2ccncc2)CC1)c1ccc(F)cc1` were, in that order, -8% and 1.06.
In the case of `COc1ccc(-c2noc(CCN(C(=O)c3ccco3)[C@@H](C)c3ccccc3)n2)cc1OC`, the “% Inhibition” value is recorded as -13% and the Z score was 1.81.
For `CCOc1ccc(N2C(=O)N[C@H]3C[C@@]2(C)Oc2c(OC)cc(Br)cc23)cc1`, the “% Inhibition” value was -7% and the Z score was determined as 1.1.
The like results for `O=C(CN1CC[C@H](c2ccccc2)C1)N1CCCN(C2CCCCC2)CC1` were, in that order, 9% and -1.63.
The like results for `CCCCc1nc(C)cc(NCCNC(=O)N2CCOCC2)n1` were, in that order, -1% and 0.24.
`COC1CC2CCC(C1)N2S(=O)(=O)c1ccc(F)c(C)c1` (stereo unspecified): the “% Inhibition” value is on record as -19% and the Z score amounted to 2.41.
For `COc1ccc([C@H](c2sc3ncnn3c2O)N2CCCCCC2)c(OC)c1OC`, the “% Inhibition” value was found to be 6% and the Z score is -0.74.
The like results for `Cc1noc(C)c1C(=O)N(CCc1ccccc1)c1ccccc1` were, in that order, -13% and 1.94.
The like results for `Cc1cc(C)nc(O[C@H]2CCN(C(=O)c3ncccn3)C2)n1` were, in that order, -10% and 1.52.
With `CC(C)(C)OC(=O)NC1CCCCCC1C(=O)O` (stereo unspecified), the “% Inhibition” value stood at 31% and the Z score is -3.45.
On to `O=C(NCC1CC12CCc1ccccc12)N(CCO)C1CC1` (stereo unspecified), for which the “% Inhibition” value is recorded as -9% and the Z score is on record as 1.42.
For `CCC(=O)N1C[C@H](NC(=O)OC(C)(C)C)[C@@H](c2ccccc2F)C1`, the “% Inhibition” value was -4% and the Z score came to 0.84.
The like results for `COc1ccccc1Nc1ccccc1C(=O)N(C)c1nncs1` were, in that order, -1% and 0.07.
For the molecule `CC(=O)N1CCC2(CC1)CN(Cc1ccccc1)C[C@H](C)O2`, the “% Inhibition” value is -3% and the Z score is 0.6.
Regarding `Cc1nc([C@H](C)NC(=O)CNC(=O)N(C)C)n[nH]1`, the “% Inhibition” value was -8% and the Z score was 1.31.
As for `COc1ccc(-c2cnn(CC(=O)Nc3cc(F)cc(F)c3)c(=O)n2)cc1`, the “% Inhibition” value is given as 4% and the Z score is listed as -0.52.
